{"source": "paper PMC3500392", "about": "(ACS chemical biology, 2012)", "key": {"[1]": {"target": "T1, GRK2 (Homo sapiens, UniProt P25098, S670A)", "T1 sequence (P25098 1-689 S670A)": "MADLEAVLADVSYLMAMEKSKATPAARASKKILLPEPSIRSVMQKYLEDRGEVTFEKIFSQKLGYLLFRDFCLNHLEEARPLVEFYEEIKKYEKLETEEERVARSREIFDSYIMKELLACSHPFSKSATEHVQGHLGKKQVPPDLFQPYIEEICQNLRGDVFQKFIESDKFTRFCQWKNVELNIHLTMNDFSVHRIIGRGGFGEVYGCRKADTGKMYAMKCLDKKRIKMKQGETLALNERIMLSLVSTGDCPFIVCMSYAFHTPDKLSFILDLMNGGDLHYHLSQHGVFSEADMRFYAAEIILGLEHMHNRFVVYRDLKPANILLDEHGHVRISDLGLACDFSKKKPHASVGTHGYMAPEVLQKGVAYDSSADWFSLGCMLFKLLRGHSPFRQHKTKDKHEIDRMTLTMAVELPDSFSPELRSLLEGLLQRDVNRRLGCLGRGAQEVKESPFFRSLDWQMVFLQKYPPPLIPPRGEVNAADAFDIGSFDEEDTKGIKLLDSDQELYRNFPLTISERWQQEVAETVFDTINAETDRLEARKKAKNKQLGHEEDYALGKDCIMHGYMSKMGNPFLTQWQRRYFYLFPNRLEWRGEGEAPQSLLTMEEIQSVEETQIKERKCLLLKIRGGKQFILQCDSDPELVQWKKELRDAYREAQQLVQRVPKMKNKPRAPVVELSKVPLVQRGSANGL", "type": "binding", "conditions": "flow cytometry bead binding; for pIC50, competition (2 nM C13.28-FAM): bGRK2"}, "[2]": {"target": "T1, GRK2", "experiment": "Thermofluor thermal stability assay, GRK2", "conditions": "200 μM ligand"}, "[3]": {"target": "T2, GRK1 (Bos taurus, UniProt P28327)", "T2 sequence (P28327 1-535)": "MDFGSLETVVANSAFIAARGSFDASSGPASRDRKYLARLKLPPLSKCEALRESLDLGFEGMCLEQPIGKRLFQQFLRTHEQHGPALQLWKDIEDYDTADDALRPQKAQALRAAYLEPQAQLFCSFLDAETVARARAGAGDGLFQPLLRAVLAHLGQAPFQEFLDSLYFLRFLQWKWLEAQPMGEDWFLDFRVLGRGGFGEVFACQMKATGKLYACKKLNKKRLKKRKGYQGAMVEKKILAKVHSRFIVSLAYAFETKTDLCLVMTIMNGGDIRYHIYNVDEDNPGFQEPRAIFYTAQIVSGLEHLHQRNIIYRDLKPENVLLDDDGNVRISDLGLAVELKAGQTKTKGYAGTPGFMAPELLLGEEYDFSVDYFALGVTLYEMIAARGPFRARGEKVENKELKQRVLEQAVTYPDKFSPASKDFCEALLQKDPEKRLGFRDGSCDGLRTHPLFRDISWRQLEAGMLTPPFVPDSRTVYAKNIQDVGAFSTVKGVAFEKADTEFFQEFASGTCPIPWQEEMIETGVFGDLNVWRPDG", "experiment": "Thermofluor thermal stability assay, GRK1", "type": "binding, bovine", "conditions": "200 μM ligand"}, "[4]": {"target": "GRK5 (Bos taurus, UniProt P43249)", "experiment": "Thermofluor thermal stability assay, GRK5", "type": "binding, bovine", "conditions": "200 μM ligand"}, "[5]": {"system": "GRK2", "conditions": "balanol ref 17, 18; C13 ref 24; cited from earlier work"}, "[6]": {"system": "adult mouse ventricular myocyte contractility", "experiment": "Myocyte shortening measurements", "conditions": "10 μM"}, "[7]": {"conditions": "baseline before isoproterenol, 10 min"}}, "note": "Counter-ions that a name gives are not always drawn."}
{"compound": "4-hydroxy-quinone monohydrate [P-835]", "values": [{"measurement": "nH (Hill slope), competition (2 nM C13.28-FAM)", "setting": "[1]", "result": "−1.6"}, {"measurement": "pIC50, competition (2 nM C13.28-FAM)", "setting": "[1]", "result": "5.5 ± 0.4"}, {"measurement": "ΔTm GRK2", "setting": "[2]", "result": "1.2 ± 0.8", "unit": "°C"}]}
{"compound": "Nc1ncnc2c1ncn2[C@@H]1O[C@H](COP(=O)(O)OP(=O)(O)OP(=O)(O)O)[C@@H](O)[C@H]1O", "note": "[ATP]", "values": [{"measurement": "nH (Hill slope), competition (2 nM C13.28-FAM)", "setting": "[1]", "result": "−0.7"}, {"measurement": "pIC50, competition (2 nM C13.28-FAM)", "setting": "[1]", "result": "4.3 ± 0.3"}, {"measurement": "ΔTm GRK1", "setting": "[3]", "result": "18.0 ± 1.5", "unit": "°C"}, {"measurement": "ΔTm GRK5", "setting": "[4]", "result": "7.2 ± 1.1", "unit": "°C"}, {"measurement": "ΔTm GRK2", "setting": "[2]", "result": "4.9 ± 1.6", "unit": "°C"}]}
{"compound": "O=C(N[C@@H]1CNCCC[C@H]1OC(=O)c1cc(O)c(C(=O)c2c(O)cccc2C(=O)O)c(O)c1)c1ccc(O)cc1", "note": "[balanol]", "values": [{"measurement": "inhibition of GRK2 (potency in words)", "setting": "[5]", "result": "low nanomolar range"}]}
{"compound": "Fc1ccc([C@@H]2CCNC[C@H]2COc2ccc3c(c2)OCO3)cc1", "note": "[paroxetine, paroxetine hydrochloride]", "values": [{"measurement": "Max. contraction amplitude", "setting": "[6]; after isoproterenol (0.2 μM, 2 min), 10 min pretreatment", "result": "15.8 ± 1.3", "unit": "% cell length"}, {"measurement": "% increase in contraction amplitude", "setting": "[6]; after isoproterenol, 10 min pretreatment", "result": "260.2 ± 19.0", "unit": "%"}, {"measurement": "Half-time of relaxation", "setting": "[6]; [7]", "result": "65.9 ± 7.3", "unit": "ms"}, {"measurement": "Max. relengthening velocity", "setting": "[6]; [7]", "result": "0.58 ± 0.08", "unit": "μm s^−1"}, {"measurement": "Max. shortening velocity", "setting": "[6]; [7]", "result": "−0.77 ± 0.09", "unit": "μm s^−1"}, {"measurement": "Max. contraction amplitude", "setting": "[6]; baseline before isoproterenol, 10 min pretreatment", "result": "4.5 ± 0.4", "unit": "% cell length"}]}
